According to PubChem BioAssay AID1745845 (National Center for Advancing Translational Sciences (NCATS), 2022):
In all, about 360,000 compounds went through this assay and about 2,600 (0.72%) were called active. The inconclusive results got no clear call from the source; some entries with a clear call stand among them for comparison. Calls follow the shape of the dose curve; as a rule, active = well fitted inhibition curve with a large enough effect; inconclusive = small, poorly fitted or top-dose-only effect; inactive = no such curve, though single readings can be large or run the other way. A potency beside an inconclusive call is a rough fit, not a confirmed value.

Test: Primary qHTS for Inhibitors of ATXN expression; also: nearly all actives have a fitted effect of over 55% in size
Details: HEK-293 ATXN2-luciferase reporter, luminescence, 24 h; activity change, negative = inhibition: at 57 µM (top of the series)
How it was run: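 ATXN2-luciferase reporter cells (luciferase flanked by upstream and downstream ATXN2 gene portions) were treated 24 h at 37 °C with compounds at up to 57 uM. SteadyGlo luminescence gave expression; GF-AFC fluorescence gave viability.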
% is scaled to controls: 0 for no effect and ±100 for the full control effect; potency is read from the fitted curve at half-maximal effect; tags tell the direction and shape of the fitted curve.

Compound | Potency | activity change, negative = inhibition
C=C1C(=O)C=C2CN(C(=O)c3ccccc3)[C@@](Cc3ccc(F)cc3)(C(=O)OC)[C@@H]12 | active: 3.16 µM | 
COc1ccc(NC(=O)C2CCCN(c3c4c(nc5ncnn35)CCC4)C2)cc1 (stereo unspecified) | inconclusive: 28.2 µM [inhibitor, partial curve, poor fit] | 
CCOc1ncccc1C(=O)OC(C)C(=O)Nc1ccc(Cl)cn1 (stereo unspecified) | inconclusive: 20 µM [inhibitor, partial curve, poor fit] | 
Cn1cc(/C=C(\C#N)C(=O)Nc2cccc([N+](=O)[O-])c2)c2ccccc21 | inconclusive: 33.6 µM [inhibitor, partial curve, poor fit] | 
CCn1cc(C(=O)NCc2cccc(F)c2)c(=O)c2cc(F)c(N3CCN(C(=O)c4ccco4)CC3)cc21 | active: 35.5 µM | 
C/C(CC(C)(C)C1CCCCC1)=N\NC(N)=S | active: 31.6 µM | 
O=S(=O)(c1ccc2ccccc2c1)N1CCN(C(=S)Nc2ccc(F)cc2)CC1 |  | inactive: -20.3%
CCCNC(=O)C1(C)CCCN(Cc2c3ccccc3nn2C)C1 (stereo unspecified) |  | inactive: -9.14%
Cc1oc(-c2ccccc2F)nc1CN1CCC(C(=O)NCCc2ccccc2)CC1 |  | inactive: -18.7%
COc1cccc(NC(=O)/C=C/c2ccc(S(=O)(=O)N3CCOCC3)cc2)c1 | active: 22.4 µM | 
CC(C)=CC(=O)Nc1nnc(-c2ccc(F)cc2)s1 | inconclusive: 11.2 µM [inhibitor, partial curve, poor fit] | 
C[C@]1(C(=O)NCCCNc2ncc(C(F)(F)F)cc2Cl)C=C[C@@H](Cc2ccccc2)N1C(=O)c1ccccc1 | inconclusive: 39.8 µM [inhibitor, single point] | 
CC(=O)Nc1cccc(-c2ccnc3c2CC(C(=O)Nc2ccc(C(C)C)cc2)O3)c1 (stereo unspecified) | inconclusive: 39.8 µM [inhibitor, single point] | 
CC(=O)Nc1sc2c(c1CN1CCN(c3ccc(F)cc3)CC1)CCCC2 |  | inactive: -2.94%
CC(C)Cc1cc(CN2CCCC(CO)(Cc3cccc(Cl)c3)C2)[nH]n1 (stereo unspecified) | inconclusive: 21.2 µM [inhibitor, partial curve, poor fit] | 
CCCCc1c(-c2ccc(OC)cc2)ncn1CCc1ccccc1OC | inconclusive: 31.6 µM [inhibitor, single point] | 
COc1ccc(C(=O)CC2(O)C(=O)N(Cc3cccc(C(F)(F)F)c3)c3ccccc32)cc1 (stereo unspecified) | inconclusive: 31.6 µM [inhibitor, single point] | 
Cc1nn(-c2ccc(NC(=O)c3ccncc3)cc2)c(C)c1Cl | inconclusive: 14.1 µM [inhibitor, partial curve] | 
CCCCOC(=O)Cn1c2ccc(OC)cc2c2nc3ccccc3nc21 | inconclusive: 39.8 µM [inhibitor, single point] | 
COc1ccc(-c2nc3cc(C)ccn3c2NC2CCCCC2)cc1SC1CCCCC1 | inconclusive: 39.8 µM [inhibitor, single point] | 
CCOC(=O)C1(Cc2cccc(OC)c2)CCN(Cc2cccc(OC)c2OC)CC1 | inconclusive: 39.8 µM [inhibitor, single point] | 
COc1ccc(C2C=C(c3ccc(Cl)cc3)Nc3nc(-c4ccc(Cl)cc4)nn32)cc1 (stereo unspecified) | inconclusive: 11.2 µM [inhibitor, partial curve, poor fit] | 

Compound | Potency | activity change, negative = inhibition
Cc1ccc(-c2noc(-c3ccc(N4CCN(C)CC4)c([N+](=O)[O-])c3)n2)cc1 |  | inactive: 18.4%
O=C1NC(c2ccccc2Cl)=N/C1=C/c1ccco1 |  | inactive: 33%
COc1cccc(Cl)c1NC(=O)N1CCN(c2cc(C)nc3ccccc23)CC1 | inconclusive: 3.77 µM [inhibitor, partial curve, poor fit] | 
CC1=C(C(=O)OCc2ccc3c(c2)OCO3)C(c2ccc(F)cc2)NC(=O)N1 (stereo unspecified) | inconclusive: 7.08 µM [inhibitor, full curve] | 
O=C(Nc1ccc(F)cc1)C1CCC(N2C(=O)c3ccccc3C2=O)CC1 (stereo unspecified) | inconclusive: 35.5 µM [inhibitor, partial curve, poor fit] | 
COc1ccc(Cl)cc1NC(=O)N1CCN(Cc2cc(=O)n3nc(-c4ccccc4)sc3n2)CC1 |  | inactive: 5.02%
CN(C)c1ccc(Nc2nc(N)c3ccccc3n2)cc1 | active: 5.01 µM | 
CC1(Cc2cccc(C(F)(F)F)c2)C(=O)Nc2ccc(-c3ccc(F)c(Cl)c3)cc21 (stereo unspecified) | inconclusive: 25.1 µM [inhibitor, single point] | 
Nc1ccc(Oc2cccc(Oc3ccc(N)cc3)c2)cc1 | active: 1.78 µM | 
COc1ccc(-c2ccc(/C=C(\NC(=O)c3ccccc3)C(=O)N3CCOCC3)o2)cc1 | inconclusive: 9.47 µM [inhibitor, partial curve, poor fit] | 
O=c1n(Cc2ccc(Cl)cc2)c2sc3c(c2c2ncnn12)CCCC3 | inconclusive: 35.5 µM [inhibitor, partial curve, poor fit] | 
CCOC(=O)N1CCC(NCCNC(=O)c2cccs2)CC1 |  | inactive: 25.7%
CCCc1cnc2c(c1SCC(=O)Nc1ccc(C)c(Cl)c1)c(=O)n(C)c(=O)n2C |  | inactive: -0.97%
CCCOc1ccc(C(=O)Nc2ccc(S(=O)(=O)N3C[C@@H]4C[C@@H](C3)c3cccc(=O)n3C4)cc2)cc1 | inconclusive: 20 µM [inhibitor, single point] | 
CC1(c2ccc(Cl)cc2)NC(=O)N(CC(=O)Nc2ccc(N3CCCCC3)cc2)C1=O (stereo unspecified) | inconclusive: 15.8 µM [inhibitor, partial curve, poor fit] | 
NS(=O)(=O)c1ccc(NC(=O)/C=C/c2ccc3c(c2)OCO3)cc1 |  | inactive: -30.2%
O=S(=O)(/C=C/C=C/S(=O)(=O)c1ccccc1)c1ccccc1 | inconclusive: 3.36 µM [inhibitor, full curve, poor fit] | 
O=C1C=C(Nc2ccc(F)cc2)c2ccccc2C1=O | inconclusive: 28.2 µM [inhibitor, partial curve, poor fit] | 
NNC(=O)c1oc2ccccc2c1-n1cccc1 |  | inactive: 17.7%
COC(=O)[C@@]1(Cc2ccc(F)cc2)[C@H]2c3cc(C(=O)N(C)C)n(Cc4ccc(C)c(F)c4F)c3C[C@H]2CN1C(=O)c1ccccc1 | inconclusive: 39.8 µM [inhibitor, single point] | 
O=C(NC(c1ccccc1)c1ccc2ccccc2n1)C1CCN(CCOc2ccc(Cl)cc2)CC1 (stereo unspecified) | active: 28.2 µM | 
O=C(Nc1cc(C(F)(F)F)ccc1Cl)c1cc(-c2ccc3c(c2)OCCO3)on1 |  | inactive: 12.9%

Compound | Potency | activity change, negative = inhibition
COc1ccc(OC)c2cc3ccccc3cc12 | active: 17.8 µM | 
CNC(=S)NC1CC2CCCC(C1)N2Cc1ccco1 (stereo unspecified) |  | inactive: -5.33%
CCOc1ccccc1/C=N/Nc1ccc(Cl)nn1 |  | inactive: 5.49%
CN1CCc2c(sc3c2C(=O)NC(c2cn(Cc4ccccc4)c4ccccc24)N3)C1 (stereo unspecified) | inconclusive: 25.1 µM [inhibitor, partial curve] | 
Nc1ccc(N2CCN(c3ccc(F)cc3)CC2)cc1 | inconclusive: 12.6 µM [inhibitor, partial curve] | 
CC[C@]12c3[nH]c4cc(CCC(=O)N(C)C)ccc4c3CCN1C(=O)[C@@H](CC(=O)NC/C=C(\C)CCC=C(C)C)C[C@@H]2C(=O)N1CCN(C(=O)c2ccco2)CC1 | inconclusive: 39.8 µM [inhibitor, single point] | 
O=c1[nH]c(Nc2ccccc2Cl)cc2ccccc12 |  | inactive: 3.8%
COc1ccc(C2CC(=O)N(Cc3cccc(F)c3)c3ccccc3S2)cc1 (stereo unspecified) | inconclusive: 31.6 µM [inhibitor, single point] | 
Cc1nc2ccccc2n1Cc1ccccc1Br | inconclusive: 11.2 µM [inhibitor, partial curve, poor fit] | 
COc1ccccc1Nc1nn2c(=O)c3ccc(C(=O)N4CCCC(C)C4)cc3nc2s1 (stereo unspecified) | inconclusive: 35.5 µM [inhibitor, single point] | 
Cc1[nH]c2ccccc2c1SCCNC(=O)c1ccc(S(=O)(=O)N2CCCC2)cc1 |  | inactive: 6.13%
CCOC(=O)c1scc(-c2ccccc2)c1S(=O)(=O)Nc1cc(Cl)c(OC)cc1OC | inconclusive: 39.8 µM [inhibitor, single point] | 
CC(=O)Nc1cccc(-c2ccnc3c2CC(C(=O)Nc2ccc(Cl)cc2)O3)c1 (stereo unspecified) | inconclusive: 39.8 µM [inhibitor, single point] | 
CCC1CCCCN1CCCNC(=O)c1ccc2c(c1)N(Cc1ccc(F)cc1)C(=O)c1ccccc1S2=O (stereo unspecified) | inconclusive: 25.1 µM [inhibitor, partial curve] | 
O=C1NC(c2cccc3ccccc23)Nc2ccc(Cl)cc21 (stereo unspecified) | inconclusive: 37.7 µM [inhibitor, single point] | 
S=C(NNc1ccnc2cc(Cl)ccc12)Nc1ccccc1Cl | inconclusive: 28.2 µM [inhibitor, partial curve, poor fit] | 
COC[C@H]1CCCN1c1ccc2c(c1)O[C@H](COCc1ccccc1)CN([C@@H](C)c1ccccc1)S2(=O)=O |  | inactive: 11.3%
O=C(c1ccc(Cl)cc1)c1oc2ccccc2c1CS(=O)c1ccccc1 (stereo unspecified) | inconclusive: 39.8 µM [inhibitor, partial curve, poor fit] | 
CCc1ccccc1NC(=O)C1CCCN(C(=O)c2cnn(-c3ccccc3)c2-n2cccc2)C1 (stereo unspecified) |  | inactive: -2.6%
CN(C)CCNC(=O)c1cccc2[nH]c(-c3ccncc3)nc12 | inconclusive: 33.6 µM [inhibitor, partial curve, poor fit] | 
CCCCCCN1C[C@H](n2cc(-c3ccc(F)cc3)nn2)[C@@H](O)C[C@@H]1c1ccc(Cl)cc1 | active: 31.6 µM | 
COc1cccc(C(=O)Nc2cccc(C(=O)NCC(C)C)c2)c1 |  | inactive: -8.75%
